From PMC4336329 (PLoS ONE, 2015)
Screen size: about 310,000 compounds; about 14,000 (4.5%) showed an effect of 50% or more. The effect is printed as a negative number. Some of the results follow.

Target: human ether-à-go-go-related gene (hERG) potassium channel (human, UniProt Q12809)
Experiment: primary screen, population patch clamp on CHO cells stably expressing hERG
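Note: peak tail current of the secondary pulse compared with the same well before compound.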

Sequence of human ether-à-go-go-related gene (hERG) potassium channel (Q12809 whole entry, looked up): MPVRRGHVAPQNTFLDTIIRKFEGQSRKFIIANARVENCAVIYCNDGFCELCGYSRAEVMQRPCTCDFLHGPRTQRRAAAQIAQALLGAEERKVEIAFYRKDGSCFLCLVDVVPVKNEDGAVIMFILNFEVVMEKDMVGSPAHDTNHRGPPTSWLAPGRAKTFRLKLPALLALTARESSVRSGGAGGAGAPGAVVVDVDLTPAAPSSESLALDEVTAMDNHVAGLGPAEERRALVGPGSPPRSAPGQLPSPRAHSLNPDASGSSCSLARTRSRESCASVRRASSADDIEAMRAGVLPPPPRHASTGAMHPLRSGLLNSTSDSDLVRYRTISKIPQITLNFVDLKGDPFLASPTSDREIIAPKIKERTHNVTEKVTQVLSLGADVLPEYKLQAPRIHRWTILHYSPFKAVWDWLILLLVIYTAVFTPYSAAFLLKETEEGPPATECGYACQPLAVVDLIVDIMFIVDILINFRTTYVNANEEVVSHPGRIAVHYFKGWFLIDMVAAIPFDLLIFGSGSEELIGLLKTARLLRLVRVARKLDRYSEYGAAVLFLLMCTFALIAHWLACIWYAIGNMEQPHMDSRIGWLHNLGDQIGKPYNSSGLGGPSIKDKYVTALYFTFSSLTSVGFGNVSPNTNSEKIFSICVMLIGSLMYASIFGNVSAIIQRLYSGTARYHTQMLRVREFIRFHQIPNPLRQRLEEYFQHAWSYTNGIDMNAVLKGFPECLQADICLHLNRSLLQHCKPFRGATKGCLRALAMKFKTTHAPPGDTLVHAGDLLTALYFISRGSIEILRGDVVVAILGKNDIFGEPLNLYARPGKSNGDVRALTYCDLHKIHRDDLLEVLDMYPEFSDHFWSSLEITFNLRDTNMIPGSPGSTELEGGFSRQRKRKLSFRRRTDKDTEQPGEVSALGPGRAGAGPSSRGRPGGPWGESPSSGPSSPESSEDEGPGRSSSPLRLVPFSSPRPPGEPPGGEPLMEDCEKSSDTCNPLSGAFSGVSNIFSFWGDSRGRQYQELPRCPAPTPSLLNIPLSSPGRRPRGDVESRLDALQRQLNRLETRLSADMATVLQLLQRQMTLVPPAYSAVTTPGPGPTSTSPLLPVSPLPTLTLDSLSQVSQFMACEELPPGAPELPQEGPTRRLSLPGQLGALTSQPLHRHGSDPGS

Compound | hERG current change (%, negative = inhibition) at 10uM [%]
COc1ccc(N(CC(=O)N2CCN(Cc3ccc4c(c3)OCO4)CC2)S(=O)(=O)c2ccc(F)cc2)cc1 | -84.6
C/C(CC(=O)N(C(C)C)C(C)C)=N\NC(=O)c1ccccc1Br | 14.5
NS(=O)(=O)c1ccc(NC=C2C(=O)OC3(CCCCC3)OC2=O)cc1 | 3.45
O=c1cc(N2CCc3ccccc3C2)[nH]c(=O)n1C1CCCCC1 | 13.6
Cc1nc(/N=C\N(C)C)sc1C(=O)Nc1ccccc1 | 5.79
CCOC(=O)c1cc2c(=O)n3ccccc3nc2n(CC2CCCO2)c1=NC(=O)/C=C/c1ccccc1 (stereo not drawn) | -35.7
COc1ccc(NC(=S)N2CCCC2)cc1OC | 9.97
CC(=O)Cc1nsc(NC(=O)c2ccccc2)n1 | 14.9
CCN1CCN(Cc2nnc(-c3ccccc3)o2)CC1 | -0.608
CC(C)Oc1cc(NC(=O)CS(=O)CC(=O)N(C)C)c(Cl)cc1Cl (stereo not drawn) | 1.76
CCCOC(=O)c1ccc(NC(=O)c2ccc(Br)o2)cc1 | -19.3
CC(=O)c1c(C)[nH]c(C(=O)OCC(=O)N2CC(C)OC(C)C2)c1C (stereo not drawn) | 20.7
CC(=O)N(Cc1ccccc1)c1c(N)nc(N)[nH]c1=O | 12.7
C/C(=N/NS(=O)(=O)c1ccc(Cl)cc1)c1cccc(NC(=O)c2ccncc2)c1 | 18.9
Cc1c(N2C(=O)/C(=C\c3ccccc3O)SC2=S)c(=O)n(-c2ccccc2)n1C | 30.5
CC(C)/C=C/CN1CCCC(N2CCN(c3cccc(Cl)c3)CC2)C1 (stereo not drawn) | -50.7
O=C(NCc1ccccc1)C1C(=O)N(Cc2ccccc2)C(=O)C1C1(O)CCCC1 (stereo not drawn) | 2.87
CCN(C(=O)CSc1nc2ccccc2o1)c1c(N)n(Cc2ccccc2)c(=O)[nH]c1=O | -17.1
COc1cccc(C=NCCCN=Cc2cccc(OC)c2O)c1O | 10.6
O=C(Cn1nnc(-c2ccccc2NC(=O)c2cccs2)n1)Nc1ccccc1 | 8.79
Cc1ccc(N2C(=O)CCSC23C(=O)Nc2ccccc23)cc1 (stereo not drawn) | -6
O=C(COC(=O)c1ccc(Cl)c(S(=O)(=O)N2CCCCC2)c1)NCC1CCCCC1 | -9.88

Compound | hERG current change (%, negative = inhibition) at 10uM [%]
CCn1c(SCC(=O)NCc2ccco2)nc2c1c(=O)n(C)c(=O)n2C | 11.2
Cc1nc(C)c(C(=O)N(c2ccccc2F)C(C(=O)NCC2CCCO2)c2ccccc2)s1 (stereo not drawn) | 8.94
CCOc1ccccc1OCCC(=O)OCC(=O)Nc1c(C)nn(-c2ccccc2)c1C | 1.41
CC1CCc2nc(NC(=O)CN3CCN(c4ccccc4)CC3)sc2C1 (stereo not drawn) | -6.29
COc1ccc(S(=O)(=O)N2CCC(C(=O)N[C@@H](C)C(=O)NCc3ccccc3OC)CC2)cc1 | -2.2
C=CCN1C(=O)C(CC(=O)Nc2ccccc2)N(Cc2ccccn2)C1=S (stereo not drawn) | -3.29
Cn1c(=O)c2c(nc(Cl)n2CC(=O)NC2(C#N)CCCCC2)n(C)c1=O | 4.92
CCOc1ccc(/C=C/C(=O)Nc2ccc(OC)cc2[N+](=O)[O-])cc1 | 7.64
COc1ccccc1-c1cn[nH]c1-c1ccc(OCc2ccc(F)cc2)cc1O | 5.24
O=[N+]([O-])c1ccc(-c2c[nH]c(=S)[nH]2)cc1 | -13
O=C(C1=C[C@@H](c2ccc3c(c2)OCO3)C[C@@H](OCCCCO)O1)N1CCOCC1 | 7.64
O=C(CSc1ncccn1)N/N=C/c1ccc(OC2CSC2)cc1 | -15.8
CSc1cccc(CN2CCC(Oc3cccc(C(=O)N4CCCC4)c3)CC2)c1 | -44.4
Cc1cccc(N2C(=O)C(Oc3ccc(Cl)cc3Cl)C2C=O)c1C (stereo not drawn) | -31.9
O=C(NC(=S)NCCC1=CCCCC1)c1ccco1 | 5.07
COc1ccc2c(C)c(CCC(=O)NC3CC3)c(=O)oc2c1C | 14.4
COc1ccccc1C(c1c(N)n(C)c(=O)n(C)c1=O)C(C)[N+](=O)[O-] (stereo not drawn) | -0.426
CCOC(=O)N1CCN(C(=O)CSc2nc(CC)nc3c2c(=O)n(C)c(=O)n3C)CC1 | -14.1
CC(NS(=O)(=O)c1ccc(Br)s1)c1ccccc1 (stereo not drawn) | 8.81
CN(C)S(=O)(=O)c1ccc(Cl)c(C(=O)NCc2ccco2)c1 | -2.3
Clc1ccccc1/C=N/c1cc(-c2ccccc2)nn1-c1ccccc1 | 13.7
O=C(Nc1ncc2c(n1)-c1ccccc1OC2)c1ccc(Cl)cc1Cl | 11.8

Compound | hERG current change (%, negative = inhibition) at 10uM [%]
CCN(CC)CCN(C(=O)c1ccc(N2C(=O)CCC2=O)cc1)c1nc2cc3c(cc2s1)OCCO3.Cl | -27.6
Cc1nc2ccc(NC(=O)COc3ccccc3F)cc2s1 | 0.868
CC(=O)NN1C(=O)c2ccccc2NC1c1ccccc1O (stereo not drawn) | 10.9
CCN(CC)C(=O)c1ncn(Cc2ccccc2)c1C(=O)N(CC)CC | 11.2
O=C(Oc1ccc(N2C(=O)CCC2=O)cc1)c1ccco1 | 1.56
CSc1cccc(NC(=O)CNC(=O)c2ccc3c(c2)OCO3)c1 | -16
COc1ccccc1NC(=O)N1CCCC(CNC(=O)c2ccccc2Cl)C1 (stereo not drawn) | 9.65
COc1ncccc1-c1nnn(-c2ccc(Cl)c(Cl)c2)n1 | 12.4
Fc1ccc(C2=CC(c3cccs3)n3nnnc3N2)cc1 (stereo not drawn) | 20.3
Cc1ccc(C)c(OCc2cc(C(=O)NC(c3ccccn3)C(F)(F)F)no2)c1 (stereo not drawn) | 12.5
Cc1c(NC(NC(=O)CC(C)C)C(Cl)(Cl)Cl)c(=O)n(-c2ccccc2)n1C (stereo not drawn) | 9.87
O=C(Cn1[nH]c(=O)c2ccccc2c1=O)OCC(=O)N(Cc1ccccc1)Cc1ccccc1 | 4.4
CS(=O)(=O)N(Cc1ccccc1)c1ccc(C(=O)Nc2ccc3c(c2)OCO3)cc1 | 2.68
c1ccc(Cn2nnnc2C(c2cccs2)N2CCSCC2)cc1 (stereo not drawn) | -7.67
O=c1[nH]nc(SCc2ccccc2)c(=O)[nH]1 | 4.95
COc1ccc(Cl)cc1NC(=O)CN(C)C(=O)c1sc2ccccc2c1Cl | 2.45
O=C(C[n+]1ccccc1)N/N=C/c1ccc(F)cc1.[Cl-] | 6.49
c1ccc(Nc2ccnc(Nc3ccccc3)n2)cc1 | -3.77
O=C(Nc1cccnc1Cl)c1noc2c1CCc1ccccc1-2 | 16.6
O=C(NC(=S)Nc1ccc(NC(=O)c2cccs2)cc1)c1ccc([N+](=O)[O-])cc1 | -25.9
CCC(=NCCc1ccccc1)c1c(O)[nH]c(=O)[nH]c1=O | 10.1
CCOC(=O)C1CCN(c2c(NCCN3CCCCC3C)c(=O)c2=O)CC1 (stereo not drawn) | -38.9

Compound | hERG current change (%, negative = inhibition) at 10uM [%]
Nc1nc(Cl)cc(N2CCC(c3cc(-c4ccc(Cl)cc4)n[nH]3)CC2)n1 | 9.57
O=C(NCCc1ccccn1)C1CCN(S(=O)(=O)c2ccc(Cl)cc2)CC1 | -36.6
Cc1nn(S(=O)(=O)c2ccccc2)c(C)c1Sc1ccc([N+](=O)[O-])cc1 | -6.26
CC(=O)Nc1cccc(C(=O)OC(C(=O)c2ccc(C)cc2)c2ccccc2)c1 (stereo not drawn) | 1.77
O=C(Cc1ccccc1)NC(NNc1ccccc1)(C(F)(F)F)C(F)(F)F | 15.2
COc1cccc(NC(=O)CCCN2C(=O)C3CC=CCC3C2=O)c1 (stereo not drawn) | -2.79
COc1ccc(C(=O)N2CCN(CCCc3ccccc3)CC2)cc1OC.O=C(O)C(=O)O | -73.3
O=C1CC(Cc2ccc(Br)cc2)C(=O)N1c1ccccc1 (stereo not drawn) | -10.6
CC1CN(C(=O)Nc2ccccc2)c2ccccc2-[n+]2ccsc21.[Br-] (stereo not drawn) | 1.52
O=C(c1c(F)cccc1F)N1CCC(n2nnc3cc(C(F)(F)F)ccc32)CC1 | -21.4
Cc1cc(C)c(S(=O)(=O)Cc2ccccc2)c(Cl)n1 | 11.5
COc1ccc(-c2ncncc2-c2csc(C)n2)c(O)c1OC | 2.21
COc1cc(OC)cc(C(=O)NC2CCCN(Cc3ccc(Cl)cc3)C2)c1 (stereo not drawn) | -37.1
S=c1[nH]nc(Cc2noc3ccccc23)n1-c1ccccc1 | 26.3
C=CCN(CC=C)C(=O)COn1nnc2ccc(S(=O)(=O)N3CCOCC3)cc21 | -4.71
Cc1ccc2occ(/C=N/NC(=O)[C@@H](N)Cc3ccccc3)c(=O)c2c1.Cl | -22.5
COC(=O)CCc1sc(NC2CCCCC2)nc1-c1ccc(OC)cc1 | 8.55
O=C(O)C1CC=CCC1C(=O)Nc1ccc(F)c(F)c1 (stereo not drawn) | 28.2
Cc1cccc(C(OC(=O)c2ccco2)C(=O)NCc2ccccc2)n1 (stereo not drawn) | -19.7
COC(=O)c1ccc(NC(=O)CN(C)Cc2cccc(F)c2)cc1 | -4.88
CCOC(=O)c1c(C)[nH]c(C(=O)OCC(=O)Nc2sccc2C(N)=O)c1C | 2.13
